To fix the notation:
B1: LINE1-mini (parent)
chain: GGCAGAGCUCAACACAGCGUGGCAAAGUGGCUGUGGCUAGACUGCC

Read counts are not given, so values of variants with three or more changes are uncertain.

This data set covers variants of B1. The experiment in a line: self-cleavage, relative activity (ratio to wild type); higher = more cleavage; in vitro, sequencing; the parent is a self-cleaving ribozyme.
For A6U C15U G19A A25U G29U, the self-cleavage is 0.34.

Regarding A6U C10A G35U, the self-cleavage came to 0.02.

A6U A39U U43C C46A: the self-cleavage came out at 0.02.

On to A6U C8A U32A, for which the self-cleavage was found to be 0.02.

Regarding A6U C8A C13G G30C, the self-cleavage came to 0.35.

In the case of A6U C23U C42U, the self-cleavage turned out to be 0.4.

On to A6U C8G C13U G27U, for which the self-cleavage was found to be 0.07.

A6U A14U G19C G29A G33A U38A: the self-cleavage is 0.01.

A6U C10A G17A C46G: the self-cleavage came out at 0.05.

Consider A6U C18G A25C G27U A39G C42U, for which the self-cleavage worked out at 0.04.

A6U C10G C23A U38G: the self-cleavage was determined as 0.02.

A6U C23U C37U: the self-cleavage turned out to be 0.03.

In the case of A6U C8A G27A G29U, the self-cleavage is 0.26.

On to A6U C23U U28A C37G, for which the self-cleavage is 0.01.

With A6U C8U A24U, the self-cleavage came out at 0.1.

For A6U C8A G22U A26C C37A, the self-cleavage was 0.03.

For A6U C8G C31U G44A C46G, the self-cleavage worked out at 0.

As to A6U C18U G21U A25C C45G, the self-cleavage stood at 0.08.

Consider A6U C10A C13U G36C C37G, for which the self-cleavage was determined as 0.

Regarding A6U C10A C37U A41U G44A, the self-cleavage turned out to be 0.01.

With A6U A16U G17U U34A G35A C37A, the self-cleavage is 0.37.

In the case of A6U C8G A14G, the self-cleavage is 0.98.

With A6U C10U G36U C37G, the self-cleavage stood at 0.01.

With A6U C13G G19C G22U U34A U43A, the self-cleavage came out at 0.05.

Turning to A6U C10A A24U G30U C31U, the self-cleavage worked out at 0.03.

In the case of A6U C13U C23U A26C, the self-cleavage was found to be 0.08.

As for A6U C10A G30A, the self-cleavage was 0.16.

In the case of A6U A24U G27A, the self-cleavage came to 0.54.

On to A6U A16U G22A A25U G40C, for which the self-cleavage was determined as 0.02.

In the case of A6U A39C C45A, the self-cleavage was 0.13.

Turning to A6U C18U U20G G30A C31U, the self-cleavage is 0.31.

As for A6U C18G A26C, the self-cleavage was found to be 0.14.

Consider A6U C10G A14C A25U A26C G36C C45U, for which the self-cleavage came to 0.

For the variant A6U C10A C45G, the self-cleavage came to 0.03.

For the variant A6U A24U C45U, the self-cleavage came to 0.48.

In the case of A6U C8A U34G A39U, the self-cleavage turned out to be 0.19.

On to A6U A16G C23U, for which the self-cleavage amounted to 0.29.

For A6U C10U A16G C23U U28A, the self-cleavage stood at 0.16.

Regarding A6U C10A U20C G27U U28C, the self-cleavage came to 0.01.

With A6U C18G G30A, the self-cleavage came out at 0.82.

For A6U C8G A11G A14G C18U G40C C46U, the self-cleavage was 0.01.

For A6U C10A C31U A39C, the self-cleavage was 0.01.

Turning to A6U C10U A12U U20A, the self-cleavage came to 0.03.

As to A6U A14U U32A G44U, the self-cleavage came out at 0.04.

As to A6U C18A C31A, the self-cleavage stood at 0.07.

In the case of A6U C8G G29U G33C, the self-cleavage was 0.12.

For the variant A6U C18U G36U C37G, the self-cleavage was 0.03.

A6U C10U C13A C15G U28C G33A U43A: the self-cleavage amounted to 0.

For A6U C13A A24U G30A, the self-cleavage came out at 0.02.

Turning to A6U A25C U32C, the self-cleavage turned out to be 0.05.

Turning to A6U C10U A16U G30U C31A A39C, the self-cleavage turned out to be 0.03.

A6U A24C A26G G27A: the self-cleavage worked out at 0.48.

Regarding A6U C8A A16G, the self-cleavage is 0.09.

For A6U C8A A16U, the self-cleavage was determined as 0.33.

For A6U A41G C46G, the self-cleavage turned out to be 1.58.

With A6U A24U A25U C31U U32C U38A G40U, the self-cleavage stood at 0.04.

Regarding A6U A26G U28A, the self-cleavage is 0.37.

For A6U C10A A24C G29U, the self-cleavage was 0.02.

With A6U A24C G40A, the self-cleavage stood at 0.06.

As for A6U C15A C42U, the self-cleavage stood at 0.08.

A6U C15G A26C U32A: the self-cleavage is 0.04.

For the variant A6U C13G A25U C31A, the self-cleavage was determined as 0.02.

On to A6U C10A C31U G33U, for which the self-cleavage was 0.01.

In the case of A6U C8U U28G U34A C37A, the self-cleavage stood at 0.02.

On to A6U A16C C31G G40C C42U, for which the self-cleavage worked out at 0.

In the case of A6U A14U C18U, the self-cleavage worked out at 0.05.

Consider A6U C15U G36A, for which the self-cleavage was found to be 0.1.

Regarding A6U A14U G27A, the self-cleavage was 0.16.

A6U C10G G17A C31A G33A U34A A41U: the self-cleavage was 0.01.

With A6U C18A C23U U28C G29C, the self-cleavage was determined as 0.37.

For A6U A16G G30C, the self-cleavage is 0.24.

Consider A6U C18A G19U G22A C37G, for which the self-cleavage is 0.04.

Take A6U C8A G35U: the self-cleavage amounted to 0.3.

Take A6U C15G C23A C31U: the self-cleavage is 0.02.

A6U A16U C18G G19A C23A A39C G44A: the self-cleavage stood at 0.04.

Take A6U C10U U28A G33U: the self-cleavage came to 0.04.

Turning to A6U C15A A26G, the self-cleavage came out at 0.08.

In the case of A6U C18U A25C A41U, the self-cleavage is 0.02.

For the variant A6U A25U A26C G27A G36A, the self-cleavage turned out to be 0.11.

Consider A6U C18U G44C, for which the self-cleavage stood at 0.12.

As to A6U C10U C15A G19U A39C C46G, the self-cleavage was found to be 0.02.

For A6U C18U G27A C46G, the self-cleavage stood at 2.08.

On to A6U A16G G44U, for which the self-cleavage came out at 0.06.

For A6U C18A U32G G36C, the self-cleavage came out at 0.02.

For the variant A6U C13G C45A, the self-cleavage was found to be 0.22.

For the variant A6U C8A C37U, the self-cleavage amounted to 0.02.

In the case of A6U A24C U43C, the self-cleavage is 0.07.

Regarding A6U C15G G33A, the self-cleavage stood at 0.06.

In the case of A6U C10A G19A, the self-cleavage amounted to 0.11.

As to A6U C8U G33U, the self-cleavage was determined as 0.11.

In the case of A6U A16C G17U U28A, the self-cleavage was determined as 0.01.

For the variant A6U C8A A25C G36U, the self-cleavage came out at 0.15.

For the variant A6U C18U G35U, the self-cleavage worked out at 0.18.

Consider A6U C23A A25G G30U U38G C42A, for which the self-cleavage came to 0.04.

For A6U C13A U43C C45G, the self-cleavage is 0.37.

Turning to A6U A16C U20C G21C G36U U38A, the self-cleavage is 0.01.

Turning to A6U C15U C23U A24U, the self-cleavage was found to be 1.59.

On to A6U C15U G29A C31U U38C, for which the self-cleavage was found to be 0.16.

For A6U C10U G17U G30A, the self-cleavage was found to be 0.13.

With A6U C31A G33A, the self-cleavage was determined as 0.03.

On to A6U A24U U34A, for which the self-cleavage turned out to be 0.09.

As to A6U A24U G30A G40C, the self-cleavage is 0.1.

Regarding A6U A14U G17U A24U, the self-cleavage was 0.09.

Take A6U C8G G35A G44A: the self-cleavage was 0.04.

Turning to A6U C10A A26G G29U, the self-cleavage amounted to 0.17.

Take A6U C13A C18G: the self-cleavage turned out to be 0.14.

On to A6U A16U A25C A26G G35A, for which the self-cleavage worked out at 0.03.

Take A6U A26G C31A: the self-cleavage turned out to be 0.14.

For the variant A6U C15U A26U G33A U34G, the self-cleavage was 0.24.

As for A6U C15U C23U G35A, the self-cleavage amounted to 0.09.

As for A6U A24U A25C A41G C46A, the self-cleavage amounted to 0.1.

In the case of A6U A25C C46A, the self-cleavage was 1.71.

A6U C10G C15U C37A A39C: the self-cleavage is 0.

For the variant A6U C18U C45G, the self-cleavage amounted to 0.08.

A6U C15U G17C A24G A41C: the self-cleavage worked out at 0.07.

A6U C13G G27U: the self-cleavage was determined as 0.04.

Take A6U C10A A41G: the self-cleavage was determined as 0.02.

In the case of A6U C23U G33C, the self-cleavage is 0.75.

For A6U C15U U34G, the self-cleavage amounted to 0.3.

Take A6U C10U G33U: the self-cleavage worked out at 0.03.

In the case of A6U A25G U28A U34C G44U, the self-cleavage was found to be 0.43.

With A6U C8A A12U G22A A39G, the self-cleavage was 0.07.

Take A6U C23A G35C: the self-cleavage was 0.06.

Consider A6U A24G A25C U28A U38A C42A, for which the self-cleavage amounted to 0.02.

As to A6U C18U G36U, the self-cleavage worked out at 0.15.

As for A6U A26U G40U, the self-cleavage stood at 0.05.

Take A6U C8G G29C C42A: the self-cleavage came out at 0.03.

Take A6U C18A G27A G30C: the self-cleavage came out at 0.39.

In the case of A6U C18A A24G, the self-cleavage was found to be 0.07.

On to A6U C18U C37G A41C G44U, for which the self-cleavage came out at 0.01.

For the variant A6U C10G G30A, the self-cleavage is 0.04.

Regarding A6U C10U A41U, the self-cleavage is 0.05.

For the variant A6U C18A G44C C46U, the self-cleavage is 0.04.

On to A6U C8U C10A G21U, for which the self-cleavage worked out at 0.09.

On to A6U C10A U20C G44U, for which the self-cleavage was found to be 0.02.

Regarding A6U A26U G27A, the self-cleavage was found to be 0.19.

As for A6U C18A A26U, the self-cleavage amounted to 0.12.

In the case of A6U C15U G21C A41U G44A, the self-cleavage came out at 0.09.

As for A6U C10G G19U, the self-cleavage was 0.12.

Take A6U C10A C42G: the self-cleavage is 0.04.

Regarding A6U C15A U20G U34C, the self-cleavage came out at 0.04.

As for A6U A16C G19C U38A, the self-cleavage came out at 0.16.

Consider A6U C13G A24U G33A, for which the self-cleavage worked out at 0.09.

For the variant A6U C10A G36A, the self-cleavage worked out at 0.01.

Take A6U C15G G19U G22A U34G: the self-cleavage was 0.01.

In the case of A6U C23A U43C, the self-cleavage was found to be 0.1.

Consider A6U C8A U9G A14C G29U C37A C46A, for which the self-cleavage stood at 0.09.

Take A6U C10A C18G: the self-cleavage turned out to be 0.05.

Take A6U A14U G22U C31G C37A U38C: the self-cleavage is 0.

Consider A6U C10A A16C G33C, for which the self-cleavage is 0.01.

For the variant A6U C10U G19U G22C C31A G35A, the self-cleavage amounted to 0.04.

Consider A6U C13A A26C G30C, for which the self-cleavage came out at 0.34.

On to A6U C23A A41C, for which the self-cleavage stood at 0.01.

A6U C10A G22U A41C: the self-cleavage amounted to 0.06.

As for A6U C8U A14C G22A, the self-cleavage came out at 0.08.

For the variant A6U C15U G35C, the self-cleavage turned out to be 0.18.

For A6U C15U U20A G22U C23U G36A C37A C42U, the self-cleavage was 0.16.

For A6U C10A C15G A39G, the self-cleavage amounted to 0.01.

Take A6U C10A U32C: the self-cleavage was 0.01.

As for A6U C13U G29A A39C C45A, the self-cleavage amounted to 0.07.

Regarding A6U C23U G36U A41G C45A, the self-cleavage was determined as 0.55.

Turning to A6U C8A C10A C15U G17U G36C, the self-cleavage came to 0.01.

For A6U C13A G21A, the self-cleavage came out at 0.24.

In the case of A6U C18A U20G U28C, the self-cleavage was 0.41.

Turning to A6U C18U A26G, the self-cleavage turned out to be 0.15.

Turning to A6U C8U G30U, the self-cleavage amounted to 0.63.

Consider A6U C8G U9C C10U C18U U38G G40C, for which the self-cleavage came out at 0.

The values above are taken from the RNAGym collection of RNA variant scans (doi:10.7554/elife.90254).
